# Reference: US11123329B1, “Use of angiotensin II type 2 receptor agonist” (Vicore Pharma AB, priority 2020, dated 2021)
# Test system: E-cadherin expression
# Assay: BioMAP fibrosis panel, human small airway epithelial cell plus lung fibroblast (SAEMyoF) assay, ELISA-based biomarker detection
# Conditions: 10 μM of C21
# Method: The effect of C21 on E-cadherin expression was studied using the human disease model BioMAP® platform (fibrosis panel) with ELISA-based protein biomarker detection in a human small airway epithelial cell plus lung fibroblast (SAEMyoF) assay (a service provided by Eurofins DiscoverX Corporation, Fremont, Calif., USA).
# The relative expression level of E-cadherin (expressed as Log ratio C21/Vehicle control) was −0.0476 with 10 μM of C21.
smiles,measurement,value
"CCCCOC(=O)NS(=O)(=O)c1sc(CC(C)C)cc1-c1ccc(Cn2ccnc2)cc1 [Compound C21, N-butyloxycarbonyl-3-(4-imidazol-1-ylmethylphenyl)-5-isobutylthiophene-2-sulfonamide]",relative expression level of E-cadherin (expressed as Log ratio C21/Vehicle control),−0.0476
